Test results from PMC4666396.
These are yes or no findings as the source states them, for the method shown. For some assays here: Binding seen in cells or lysates may run through a third protein. Some entries that bind do so weakly or less than the wild type. For some assays here: Tags and fused reporters may be left off the sequences shown.

T1: GST-CHERP-SURP (UniProt Q8IWX8)
T1 sequence: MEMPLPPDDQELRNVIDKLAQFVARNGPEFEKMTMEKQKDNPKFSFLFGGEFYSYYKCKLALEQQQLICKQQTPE

T2: GST-SF3a120-SURP1 (UniProt Q15459)
T2 sequence: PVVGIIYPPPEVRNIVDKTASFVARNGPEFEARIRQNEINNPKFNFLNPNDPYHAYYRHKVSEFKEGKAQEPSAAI

T3: Splicing factor 1 (SF1) (human (endogenous in HeLa)) (UniProt Q15637)
T3 sequence: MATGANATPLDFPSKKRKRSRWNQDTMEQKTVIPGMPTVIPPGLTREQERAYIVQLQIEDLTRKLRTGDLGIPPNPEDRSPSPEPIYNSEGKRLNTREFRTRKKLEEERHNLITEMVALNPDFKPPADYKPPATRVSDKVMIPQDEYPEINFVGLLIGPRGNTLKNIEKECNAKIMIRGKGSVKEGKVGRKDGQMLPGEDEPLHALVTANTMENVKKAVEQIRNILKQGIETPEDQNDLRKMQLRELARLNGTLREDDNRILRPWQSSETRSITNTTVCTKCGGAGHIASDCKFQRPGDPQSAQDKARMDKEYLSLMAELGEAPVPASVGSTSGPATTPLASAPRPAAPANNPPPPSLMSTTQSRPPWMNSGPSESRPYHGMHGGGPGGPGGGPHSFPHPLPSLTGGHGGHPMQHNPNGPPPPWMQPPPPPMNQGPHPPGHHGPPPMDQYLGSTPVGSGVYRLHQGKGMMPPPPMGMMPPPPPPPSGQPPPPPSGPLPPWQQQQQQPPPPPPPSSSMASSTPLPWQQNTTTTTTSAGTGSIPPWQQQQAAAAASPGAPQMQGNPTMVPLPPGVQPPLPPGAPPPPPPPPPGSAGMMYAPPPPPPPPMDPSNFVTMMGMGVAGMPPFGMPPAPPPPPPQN

T4: Splicing factor 1 (SF1) (human (endogenous in HeLa)), Q15637
T4 chain: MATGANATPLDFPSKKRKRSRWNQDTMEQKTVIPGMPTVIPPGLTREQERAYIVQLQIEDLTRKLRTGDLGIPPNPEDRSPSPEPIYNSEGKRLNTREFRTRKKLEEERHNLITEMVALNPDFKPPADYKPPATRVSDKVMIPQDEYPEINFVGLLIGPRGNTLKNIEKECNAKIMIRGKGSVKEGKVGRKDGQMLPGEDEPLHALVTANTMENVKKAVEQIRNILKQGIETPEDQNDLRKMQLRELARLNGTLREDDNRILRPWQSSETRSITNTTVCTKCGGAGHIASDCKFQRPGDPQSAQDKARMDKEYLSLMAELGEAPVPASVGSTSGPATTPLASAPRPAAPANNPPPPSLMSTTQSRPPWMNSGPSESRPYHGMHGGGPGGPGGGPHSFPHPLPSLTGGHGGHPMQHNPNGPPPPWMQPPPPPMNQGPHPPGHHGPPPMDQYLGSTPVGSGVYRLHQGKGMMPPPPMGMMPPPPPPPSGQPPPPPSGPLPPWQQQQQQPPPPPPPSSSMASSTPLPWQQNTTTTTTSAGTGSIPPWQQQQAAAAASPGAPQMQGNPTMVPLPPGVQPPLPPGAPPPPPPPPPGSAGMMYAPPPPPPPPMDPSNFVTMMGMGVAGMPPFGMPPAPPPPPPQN


What was measured:
[1] = molecular target: T1, GST-CHERP-SURP; experiment: pull-down; GST fusion proteins on glutathione-agarose; His6- or His6-MBP-tagged SF1 proteins in two-fold molar excess; NETN (20 mM Tris-HCl pH 8.0, 50 mM NaCl, 0.5% NP-40, 0.5 mM EDTA), 45 min 4°C; with or without RNase A; western blot with anti-His6; both purified
[2] = molecular target: T2, GST-SF3a120-SURP1; experiment: as above
[3] = molecular target: T3, Splicing factor 1 (SF1) (human (endogenous in HeLa)); experiment: co-IP; anti-SF1 on Dynabeads Protein G; RNase A-treated HeLa cell nuclear extract, 1 h 4°C; washes 50 mM Tris-HCl pH 7.5, 100 mM NaCl, 0.05% NP-40, 0.5 mM DTT; western blot; control mouse IgG
[4] = molecular target: T4, Splicing factor 1 (SF1) (human …); experiment: as above; conditions: remark: other sources report otherwise

Binder | binding [1] | binding [2] | binding [3] | binding [4]
QRPGDPQSAQDKARMDKEYLSLMAELGEAPVPASVGSTSGP (domain or fragment, UniProt Q15637 295-335) [His6-MBP-SF1 295–335] | binds weakly | binds weakly |  | 
calcium homoeostasis endoplasmic reticulum protein (CHERP) (protein, UniProt Q8IWX8 1-916) MEMPLPPDDQELRNVIDKLAQFVARNGPEFEKMTMEKQKDNPKFSFLFGGEFYSYYKCKLALEQQQLICKQQTPELEPAATMPPLPQPPLAPAAPIPPAQGAPSMDELIQQSQWNLQQQEQHLLALRQEQVTAAVAHAVEQQMQKLLEETQLDMNEFDNLLQPIIDTCTKDAISAGKNWMFSNAKSPPHCELMAGHLRNRITADGAHFELRLHLIYLINDVLHHCQRKQARELLAALQKVVVPIYCTSFLAVEEDKQQKIARLLQLWEKNGYFDDSIIQQLQSPALGLGQYQATLINEYSSVVQPVQLAFQQQIQTLKTQHEEFVTSLAQQQQQQQQQQQQLQMPQMEAEVKATPPPPAPPPAPAPAPAIPPTTQPDDSKPPIQMPGSSEYEAPGGVQDPAAAGPRGPGPHDQIPPNKPPWFDQPHPVAPWGQQQPPEQPPYPHHQGGPPHCPPWNNSHEGMWGEQRGDPGWNGQRDAPWNNQPDAAWNSQFEGPWNSQHEQPPWGGGQREPPFRMQRPPHFRGPFPPHQQHPQFNQPPHPHNFNRFPPRFMQDDFPPRHPFERPPYPHRFDYPQGDFPAEMGPPHHHPGHRMPHPGINEHPPWAGPQHPDFGPPPHGFNGQPPHMRRQGPPHINHDDPSLVPNVPYFDLPAGLMAPLVKLEDHEYKPLDPKDIRLPPPMPPSERLLAAVEAFYSPPSHDRPRNSEGWEQNGLYEFFRAKMRARRRKGQEKRNSGPSRSRSRSKSRGRSSSRSNSRSSKSSGSYSRSRSRSCSRSYSRSRSRSRSRSRSSRSRSRSQSRSRSKSYSPGRRRRSRSRSPTPPSSAGLGSNSAPPIPDSRLGEENKGHQMLVKMGWSGSGGLGAKEQGIQDPIKGGDVRDKWDQYKGVGVALDDPYENYRRNKSYSFIARMKARDECK |  |  | binds | 
His6-SF1-C315 (domain or fragment, UniProt Q15637 1-315) MATGANATPLDFPSKKRKRSRWNQDTMEQKTVIPGMPTVIPPGLTREQERAYIVQLQIEDLTRKLRTGDLGIPPNPEDRSPSPEPIYNSEGKRLNTREFRTRKKLEEERHNLITEMVALNPDFKPPADYKPPATRVSDKVMIPQDEYPEINFVGLLIGPRGNTLKNIEKECNAKIMIRGKGSVKEGKVGRKDGQMLPGEDEPLHALVTANTMENVKKAVEQIRNILKQGIETPEDQNDLRKMQLRELARLNGTLREDDNRILRPWQSSETRSITNTTVCTKCGGAGHIASDCKFQRPGDPQSAQDKARMDKEYLS | binds weakly | binds weakly |  | 
suppressor of white-apricot homolog (SFSWAP), Q12872 1-951 (protein) MYGASGGRAKPERKSGAKEEAGPGGAGGGGSRVELLVFGYACKLFRDDERALAQEQGQHLIPWMGDHKILIDRYDGRGHLHDLSEYDAEYSTWNRDYQLSEEEARIEALCDEERYLALHTDLLEEEARQEEEYKRLSEALAEDGSYNAVGFTYGSDYYDPSEPTEEEEPSKQREKNEAENLEENEEPFVAPLGLSVPSDVELPPTAKMHAIIERTASFVCRQGAQFEIMLKAKQARNSQFDFLRFDHYLNPYYKFIQKAMKEGRYTVLAENKSDEKKKSGVSSDNEDDDDEEDGNYLHPSLFASKKCNRLEELMKPLKVVDPDHPLAALVRKAQADSSTPTPHNADGAPVQPSQVEYTADSTVAAMYYSYYMLPDGTYCLAPPPPGIDVTTYYSTLPAGVTVSNSPGVTTTAPPPPGTTPLPPPTTAETSSGATSTTTTTSALAPVAAIIPPPPDVQPVIDKLAEYVARNGLKFETSVRAKNDQRFEFLQPWHQYNAYYEFKKQFFLQKEGGDSMQAVSAPEEAPTDSAPEKPSDAGEDGAPEDAAEVGARAGSGGKKEASSSKTVPDGKLVKASFAPISFAIKAKENDLLPLEKNRVKLDDDSDDDEESKEGQESSSSAANTNPAVAPPCVVVEEKKPQLTQEELEAKQAKQKLEDRLAAAAREKLAQASKESKEKQLQAERKRKAALFLQTLKNPLPEAEAGKIEESPFSVEESSTTPCPLLTGGRPLPTLEVKPPDRPSSKSKDPPREEEKEKKKKKHKKRSRTRSRSPKYHSSSKSRSRSHSKAKHSLPSAYRTVRRSRSRSRSPRRRAHSPERRREERSVPTAYRVSRSPGASRKRTRSRSPHEKKKKRRSRSRTKSKARSQSVSPSKQAAPRPAAPAAHSAHSASVSPVESRGSSQERSRGVSQEKEAQISSAIVSSVQSKITQDLMAKVRAMLAASKNLQTSAS |  |  |  | no binding
QDKARMDKEYLSLMAELGEAPVP (domain or fragment, UniProt Q15637 304-326) [His6-MBP-SF1 304–326] | no binding | no binding |  | 
His6-MBP-SF1-C370 Δ306–326 (domain or fragment, UniProt Q15637) MATGANATPLDFPSKKRKRSRWNQDTMEQKTVIPGMPTVIPPGLTREQERAYIVQLQIEDLTRKLRTGDLGIPPNPEDRSPSPEPIYNSEGKRLNTREFRTRKKLEEERHNLITEMVALNPDFKPPADYKPPATRVSDKVMIPQDEYPEINFVGLLIGPRGNTLKNIEKECNAKIMIRGKGSVKEGKVGRKDGQMLPGEDEPLHALVTANTMENVKKAVEQIRNILKQGIETPEDQNDLRKMQLRELARLNGTLREDDNRILRPWQSSETRSITNTTVCTKCGGAGHIASDCKFQRPGDPQSAQDGTASVGSTSGPATTPLASAPRPAAPANNPPPPSLMSTTQSRPPWMN | no binding | no binding |  | 
His6-SF1-C302 (domain or fragment, UniProt Q15637 1-302) MATGANATPLDFPSKKRKRSRWNQDTMEQKTVIPGMPTVIPPGLTREQERAYIVQLQIEDLTRKLRTGDLGIPPNPEDRSPSPEPIYNSEGKRLNTREFRTRKKLEEERHNLITEMVALNPDFKPPADYKPPATRVSDKVMIPQDEYPEINFVGLLIGPRGNTLKNIEKECNAKIMIRGKGSVKEGKVGRKDGQMLPGEDEPLHALVTANTMENVKKAVEQIRNILKQGIETPEDQNDLRKMQLRELARLNGTLREDDNRILRPWQSSETRSITNTTVCTKCGGAGHIASDCKFQRPGDPQS | no binding | no binding |  | 
His6-MBP-SF1 127–302 (domain or fragment, UniProt Q15637 127-302) ADYKPPATRVSDKVMIPQDEYPEINFVGLLIGPRGNTLKNIEKECNAKIMIRGKGSVKEGKVGRKDGQMLPGEDEPLHALVTANTMENVKKAVEQIRNILKQGIETPEDQNDLRKMQLRELARLNGTLREDDNRILRPWQSSETRSITNTTVCTKCGGAGHIASDCKFQRPGDPQS | no binding | no binding |  | 
